# Laboratory results published in PubChem BioAssay AID686978 (National Center for Advancing Translational Sciences (NCATS), 2013).
# Several values for one entry are separate records, joined by “and”; a condition that tells them apart may be missing. Equal values may be shown once. In all, about 420,000 compounds went through this assay and about 64,000 (15%) were called active. The inconclusive results got no clear call from the source; some entries with a clear call stand among them for comparison. The call rests on the fitted dose curve; in most records, active means well fitted inhibition curve with a large enough effect; inconclusive means small, poorly fitted or top-dose-only effect; inactive means flat fitted curve, though single readings scatter. No potency is given beside an inconclusive call; the fits are too rough.
# Test: qHTS for Inhibitors of human tyrosyl-DNA phosphodiesterase 1 (TDP1): qHTS in cells in absence of CPT; further: nearly all actives have a fitted effect of over 55% in size
# Conditions: DT40 Tdp1-/- hTDP1 cells, no CPT, ATP luminescence, 48 h; activity change, negative = growth inhibition: at 46.2 µM (top of the series) unless noted
# Outline: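 Camptothecin absent (DMSO only). Human TDP1-complemented DT40 knockout cells, 400 cells/well, 37 °C for minimum 48 hr; ATP measured via CellTiter-Glo, 30 min dark incubation, luminescence.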
# On the % scale 0 is the no-effect control and ±100 the full control effect; potency means the concentration at half of the fitted maximal effect; tags describe the fitted curve by direction and shape.
Structure (SMILES),Potency,"activity change, negative = growth inhibition"
COc1ccc(S(=O)(=O)N(C)CC(=O)N2CCN(c3ccc(F)cc3)CC2)cc1OC,active: 22.4 µM,
Cc1cc(NC2CCCCC2)n2c(n1)nc1ccccc12,"inconclusive [inhibitor, partial curve]",
COC(=O)c1ccc(CSc2cc(C)c3ccccc3n2)o1,"inconclusive [inhibitor, single point]",
COc1ccccc1CCNC(=O)c1c(N)[nH]c(C(=O)c2ccccc2)c1-c1ccc(Br)cc1,"inconclusive [inhibitor, single point]",
CC(=O)Nc1cccc(NC(=O)CN2c3cccc4cccc(c34)S2(=O)=O)c1,,inactive: -20.4%
CC(C)(C)NS(=O)(=O)c1ccc(NC(=S)NC(=O)C2CCC2)cc1,"inconclusive [inhibitor, single point]",
Cc1ccc(C(=O)n2c(-c3ccccc3)cnc2SCC(=O)Nc2ccccc2)cc1,"inconclusive [inhibitor, single point]",
CC1(Cc2ccccc2F)C(=O)Nc2c(Cl)ccc(Cl)c21 (centres undefined),"inconclusive [inhibitor, single point]",
COc1ccc(NC(=O)CSc2nc(-c3ccc(OC)cc3)[nH]c2-c2ccc(OC)cc2)cc1,"inconclusive [inhibitor, single point]",
COC(=O)c1ccccc1NC(=O)Cc1nc(-c2ccccc2)sc1-c1ccc(C)cc1,"inconclusive [inhibitor, single point]",
Cc1ccc(N(CC(=O)NCc2ccc(Cl)cc2)S(=O)(=O)N(C)C)cc1,"inconclusive [inhibitor, single point]",
N#Cc1ccccc1/C=N/Nc1nc(-c2ccccc2)c2cc(Br)ccc2n1,"inconclusive [inhibitor, single point]",
CC(C)(C)NC(=O)C(c1cccs1)N(Cc1ccc(F)cc1)C(=O)c1csnn1 (centres undefined),"inconclusive [inhibitor, single point]",
CCOC(=O)CSc1nc(Nc2ccc3c(c2)OCO3)c2ccccc2n1,"inconclusive [inhibitor, single point]",
C/C(=N/Nc1ccnc2cc(Cl)ccc12)c1ccc(O)cc1,"inconclusive [inhibitor, single point]",
c1ccc(CCC2CCCCN2Cc2nc(C3CC3)no2)cc1 (centres undefined),"inconclusive [inhibitor, partial curve]",
Cc1cccc(C)c1-n1nnnc1C(c1cc2ccccc2o1)N1CCN(C/C=C/c2ccccc2)CC1 (centres undefined),active: 23.1 µM,
CCN1C(=NCc2cccc(Cl)c2)N[C@@H](c2cccc(C(F)(F)F)c2)C(C(=O)OC)=C1C,"inconclusive [inhibitor, single point]",
CN1Cc2c(N3CCOCC3)nc(SCc3ccccc3)c(C#N)c2CC1(C)C,"inconclusive [inhibitor, single point]",
CCC(=O)c1ccccc1OCCSc1nc(C)cc(=O)[nH]1,,inactive: 0.921%
C[C@H]1CN=C(Nc2ccccc2)N1CCc1ccc(F)cc1,"inconclusive [inhibitor, single point]",
CC(C)C(NC(=O)C(C)N1C(=O)c2ccccc2C1=O)c1ccccc1 (centres undefined),,inactive: -4.94%
CC1=NN(C(=O)CSCc2ccccc2)C(O)(c2ccc(Cl)cc2)C1 (centres undefined),"inconclusive [inhibitor, single point]",

Structure (SMILES),Potency,"activity change, negative = growth inhibition"
Cc1ccc(C)c(OCC(=O)Nc2ccc(N3CCOCC3)cc2)c1,"inconclusive [inhibitor, single point]",
CC1CCCN(C(=S)NCc2ccccc2)C1 (centres undefined),"inconclusive [inhibitor, single point]",
N#Cc1cc2c(OCC(O)CN3CCN(C(c4ccccc4)c4ccccc4)CC3)cccc2[nH]1 (centres undefined),active: 5.8 µM and active: 5.62 µM,
CN1Cc2c(N3CCOCC3)nc3sc(C#N)c(N)c3c2CC1(C)C,,inconclusive: -31.7% [inhibitor]
Cc1ccccc1-c1nc(CN2CCC(C(=O)NC3CC3)CC2)c(C)o1,,inactive: 1.09%
NS(=O)(=O)c1ccc(CCNC(=O)CCNS(=O)(=O)c2ccccc2C(F)(F)F)cc1,,inactive: -5.15%
Cc1ccc(OCCn2cc(/C=C/C(=O)O)c3ccccc32)cc1,,inactive: 18.5%
N#C/C(=C(/O)COC(=O)CSc1ccc(Cl)cc1)c1nc2ccccc2[nH]1,active: 5.17 µM,
Cc1ccc(/C=N/NC(=O)CN2CCN(Cc3ccccc3Cl)CC2)o1,"inconclusive [inhibitor, partial curve]",
COC(=O)c1ccc(Nc2nnc(-c3ccc(C)c(S(=O)(=O)N4CCN(C)CC4)c3)c3ccccc23)cc1,active: 23.1 µM,
Cc1cccc(CN2C(=O)c3ccccc3S(=O)(=O)c3ccc(C(=O)NCCC4=CCCCC4)cc32)c1,"inconclusive [inhibitor, single point]",
O=C(Nc1ccc2c(c1)OCCO2)c1cccc(Br)c1,,inactive: -23%
COc1ccc2[nH]cc(CCNS(=O)(=O)c3ccc(F)cc3)c2c1,"inconclusive [inhibitor, partial curve, poor fit]",
CCOC(=O)N1CCN(C(=O)c2ccc(SC)cc2OC)CC1,,inconclusive: -30.6% [inhibitor]
CC(=O)c1cccc(NC(=O)c2cc(=O)[nH]c3ccc(S(=O)(=O)N4CCOCC4)cc23)c1,,inactive: -13.1%
Cc1ccc(C(=O)Nc2cccc(-c3nc4cccnc4s3)c2C)cc1,"inconclusive [inhibitor, single point]",
CCc1c(C)sc(NC(=O)c2ccccc2[N+](=O)[O-])c1C(N)=O,,inactive: -8.85%
CCc1ccccc1NC(=O)CNC(=O)c1n[nH]c(=O)c2ccccc12,,inactive: 3.33%
CCc1cccc(N(C(=O)c2csnn2)C(C(=O)NC(C)(C)C)c2ccncc2)c1 (centres undefined),"inconclusive [inhibitor, single point]",
C=CCn1c(SCC(=O)NCCCC)nc2scc(-c3ccco3)c2c1=O,"inconclusive [inhibitor, single point]",
O=C1N(CN2C(=O)C3(OCCO3)c3ccccc32)c2ccccc2C12OCCO2,"inconclusive [inhibitor, partial curve]",
COc1ccc(C(CNC(=O)C(C)c2ccc3cc(OC)ccc3c2)N(C)C)cc1 (centres undefined),"inconclusive [inhibitor, single point]",
CCOC(=O)CNC(=O)C1CCCN(c2ncccn2)C1 (centres undefined),,inactive: -7.28%

Structure (SMILES),Potency,"activity change, negative = growth inhibition"
CCC1CN(CC(=O)NC(c2ccccn2)C(F)(F)F)Cc2cc(OC)ccc2O1 (centres undefined),,inactive: -18.5%
Cc1cc(C)cc(N2C(=O)C=CC2=O)c1,active: 0.82 µM,
CCCCn1c(N)c(N(CC(C)C)C(=O)CCCn2c(=O)oc3ccccc32)c(=O)[nH]c1=O,,inactive: -21.3%
COc1cc(-c2nc(S(=O)(=O)c3ccc(Cl)cc3)c(N(C)C)o2)cc(OC)c1OC,,inactive: -18.5%
COc1ccc(-c2c3c(=O)n(C)c(=O)n(C)c3cn2-c2cccc(OC)c2)cc1,"inconclusive [inhibitor, partial curve]",
COc1cc(C(=O)N/N=C/c2ccc(OC(=O)c3cccc(C)c3)c(OC)c2)ccc1O,"inconclusive [inhibitor, single point]",
CC1=C(C(=O)N2CCCCCC2)CC(CC(=O)NCCCCc2ccccc2)C(=O)N1Cc1ccccc1 (centres undefined),active: 20.6 µM,
CCc1ccccc1NC(=O)c1ccc(CN2CCC(Cc3ccccc3)CC2)cc1,"inconclusive [inhibitor, single point]",
Clc1ccc(-c2nc3ncccn3c2Nc2ccc3c(c2)OCO3)cc1,"inconclusive [inhibitor, single point]",
Cc1cc2c(c(SCC(N)=O)n1)C(=O)OC2,,inactive: -0.876%
COc1ccccc1-c1ccc2c(c1)C(C)(Cc1cc(Cl)ccc1C(F)(F)F)C(=O)N2 (centres undefined),"inconclusive [inhibitor, single point]",
COc1ccccc1N(CC(=O)NCCSCc1ccccc1)S(=O)(=O)c1ccc(C)cc1,active: 14.6 µM and active: 11.6 µM,
COc1ccc(OC)c(C(=O)N(C)C2CCCN(Cc3ccccc3F)C2)c1 (centres undefined),"inconclusive [inhibitor, single point]",
Cc1cccc(-n2c(N)cc(=O)nc2SCC(=O)Nc2nnc(C)s2)c1,,inactive: 3.88%
O=C(COC(=O)c1ccc2c(c1)S(=O)(=O)c1ccccc1C2=O)NC1CC1,,inactive: -0.825%
CCOc1ccccc1NC(=S)N(Cc1cc2ccc(C)cc2[nH]c1=O)CC1CCCN1CC (centres undefined),active: 25.9 µM,
Cc1ccccc1NC(=O)CSc1nc(-c2ccccc2C)nc2cc(=O)[nH]n12,"inconclusive [inhibitor, partial curve]",
CCOC1CCCc2oc(-c3ccc(OC)cc3)c(C(=O)NCCCCO)c21 (centres undefined),,inactive: -21.1%
COc1cc(NC(=O)[C@H]2O[C@@H](n3ccc(N)nc3=O)[C@H](O)[C@@H]2O)cc(OC)c1OC,,inactive: 8.98%
COc1ccc(C(=O)Cn2nnc(-c3ccccc3NC(=O)c3ccco3)n2)cc1,active: 8.2 µM,
COc1ccc(C2=NS(=O)(=O)N(C)C(C(=O)N(C)Cc3ccccc3)=C2)cc1,"inconclusive [inhibitor, single point]",
COc1ccc(NC(=O)Cn2c(=O)n(C(C)C)c(=O)c3oc4ccccc4c32)cc1Cl,active: 16.4 µM,
Cc1cnc(SCc2ccccn2)nc1C1CCCN(C(=O)c2ccc3[nH]c(C)c(C)c3c2)C1 (centres undefined),"inconclusive [inhibitor, single point]",
